# Data as given in PubChem BioAssay AID686978 (National Center for Advancing Translational Sciences (NCATS), 2013).
# Out of some 420,000 compounds screened, about 64,000 (15%) were called active. The shares of active, inactive and inconclusive entries below differ from those in the screen. The call rests on the fitted dose curve; in most records, active means well fitted inhibition curve with a large enough effect; inconclusive means small, poorly fitted or top-dose-only effect; inactive means flat fitted curve, though single readings scatter. Potencies of inconclusive entries are left out as doubtful fits.
# Assay: qHTS for Inhibitors of human tyrosyl-DNA phosphodiesterase 1 (TDP1): qHTS in cells in absence of CPT; further: nearly all actives have a fitted effect of over 55% in size
# Conditions: DT40 Tdp1-/- hTDP1 cells, no CPT, ATP luminescence, 48 h; activity change, negative = growth inhibition: at 46.2 µM (top of the series) unless noted
# In short: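 Growth kinetics read by CellTiter-Glo luminescence after ≥48 hr at 37 °C. Cells: DT40 Tdp1-/- stably carrying human TDP1, 400 per well, compound exposure in the absence of CPT (DMSO vehicle).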
# On the % scale 0 is the no-effect control and ±100 the full control effect; potency means the concentration at half of the fitted maximal effect; tags describe the fitted curve by direction and shape.
SMILES,Potency,"activity change, negative = growth inhibition"
CCc1ccc(NC(=S)N2CCN(c3cccc(C(F)(F)F)c3)CC2)cc1,"inconclusive [inhibitor, partial curve]",
Cc1noc2ncnc(NCCc3ccccc3)c12,active: 6.51 µM,
COCCN(C(=O)c1ccco1)c1nnc(-c2ccc(OC)c(OC)c2)s1,"inconclusive [inhibitor, partial curve, poor fit]",
CSc1ccc(/C=N/NC(=O)c2cc(O)cc(O)c2)cc1,,inactive: 2.93%
CCc1ccc(NC(=O)C2(c3ccccc3)CC2(Cl)Cl)cc1 (stereo unspecified),"inconclusive [inhibitor, single point]",
Cc1cc(OCC(O)CN2C(C)CCCC2C)ccc1C(C)C (stereo unspecified),"inconclusive [inhibitor, single point]",
CCOC(=O)N1CCN(C(=O)C2CCN(Cc3cccc(OCc4ccccc4)c3)CC2)CC1,"inconclusive [inhibitor, single point]",
OCC[C@@H]1C[C@H](O)[C@@H](O)[C@@]2(OCCCc3ccccc32)O1,,inactive: -1.93%
O=S1(=O)N=C(Nc2ccc(O)cc2)c2ccccc21,,inactive: 4.96%
O=C(CCCNC(=O)/C(=C/c1ccc(Br)cc1)NC(=O)c1ccccc1)OCc1ccccc1,"inconclusive [inhibitor, single point]",
Cc1ccn2cc(C(=O)NCc3ccco3)nc2c1,,inactive: 5.66%
COc1ccc(C(O)c2nc(-c3ccccc3OC)cs2)cc1 (stereo unspecified),"inconclusive [inhibitor, single point]",
COc1c(Br)cc(/C=N/n2c(-c3ccccc3)n[nH]c2=S)c(O)c1Br,"inconclusive [inhibitor, single point]",
CCCCNC(=O)[C@@H]1CC=C[C@@H]2CCN(CCCC)C(=O)[C@@H]21,"inconclusive [inhibitor, single point]",
COc1ccc2ccccc2c1CNC(C)c1ccccc1 (stereo unspecified),active: 10.3 µM,
CC(C)n1cc(-c2ccc(Cl)cc2)cc(C#N)c1=O,"inconclusive [inhibitor, single point]",
O=C(CO)c1c[nH]c2ccccc12,,inactive: 5.87%
COCc1cc(CN(C)C(=O)C2CCC(=O)N(Cc3cccc(OC)c3)C2)[nH]n1 (stereo unspecified),"inconclusive [inhibitor, full curve]",
Cc1ccc(C(=O)N[C@H](C(=O)Nc2cc(Cl)cc(Cl)c2)C(C)C)cc1,,inactive: -6.73%
COc1cccc(/C=C2\SC(=S)N(N3CCOCC3)C2=O)c1OC,,inactive: -9.43%
O=C(CNC(c1ccccc1)c1ccccc1)Nc1ccccc1Br,"inconclusive [inhibitor, single point]",
COc1ccc(NS(=O)(=O)c2ccc3c(c2)CC(C)N3C(=O)C2CCC2)cc1OC (stereo unspecified),active: 0.651 µM,
COc1ccccc1/C=N/NC(=O)c1ccc(C)nc1,,inactive: 14.2%

SMILES,Potency,"activity change, negative = growth inhibition"
Cc1c(C)n(C(=O)CN2CCC(C)CC2)c2ccccc12,,inactive: -11.9%
CCOC(=O)CN(C(=O)COC(=O)C1(c2ccccc2)CC1)c1ccc(F)cc1,"inconclusive [inhibitor, single point]",
CSc1nn(CC(=O)Nc2ccc(C)cc2C)c(N)c1S(=O)(=O)c1ccc(Cl)cc1,"inconclusive [inhibitor, single point]",
O=C(Cc1ccc(-n2c(=O)c3ccccc3n(Cc3ccccc3F)c2=O)cc1)NCC1CCCO1 (stereo unspecified),"inconclusive [inhibitor, full curve, poor fit]",
CCn1cc(C(=O)N(C)c2cc(C)ccc2C)c2cc(OC)c(OC)cc2c1=O,active: 20.6 µM,
Cc1ccc2cccc(S(=O)(=O)Nc3c(C)n(C)n(-c4ccccc4)c3=O)c2n1,,inactive: -11.3%
CC1=C(C#N)C(c2ccoc2)C(C(=O)OCc2ccccc2)=C(N)S1 (stereo unspecified),active: 25.9 µM,
Cc1ccccc1C(=O)NNC(=O)c1cc(N)cc([N+](=O)[O-])c1,"inconclusive [inhibitor, full curve, poor fit]",
CC(Cc1ccc(Cl)cc1)N1CCC(n2nccc2NC(=O)C2CCCC2)CC1 (stereo unspecified),"inconclusive [inhibitor, single point]",
Clc1ccc(/C=N/Nc2nc(Cl)nc3ccccc23)cc1,"inconclusive [inhibitor, partial curve, poor fit]",
O=C(CCCN1C(=O)/C(=C\c2ccccc2)SC1=S)Nc1ccccc1O,,inconclusive: -31.5% [inhibitor]
CCOC(=O)N1CCN(C(=O)Cc2ccc(-n3c(=S)[nH]c4ccccc4c3=O)cc2)CC1,,inactive: -15.2%
Cc1noc(C)c1COc1ccccc1C(=O)N1CCN(S(=O)(=O)c2cccc([N+](=O)[O-])c2)CC1,,inactive: 0.541%
COc1ccc2c(c1)c1ccccc1n2C,"inconclusive [inhibitor, single point]",
CC(=O)c1c(C)[nH]c(C(=O)Nc2cc(S(=O)(=O)N3CCCCC3)ccc2C)c1C,"inconclusive [inhibitor, single point]",
COc1cc2c(C(=O)N3CCN(c4ccc(F)cc4)CC3)cn(CC(C)C)c(=O)c2cc1OC,"inconclusive [inhibitor, single point]",
CCc1ccc(-c2cc(C)no2)cc1S(=O)(=O)Nc1cc(C)ccn1,,inactive: 7.45%
CCOC(=O)c1ccc2nc(Nc3nc4ccc(F)cc4s3)sc2c1,"inconclusive [inhibitor, single point]",
O=C(CCn1c(=O)oc2ccccc21)N(Cc1ccccc1)c1ccccc1,"inconclusive [inhibitor, single point]",
CSCC[C@H](N)C(=O)NC[C@H]1O[C@@H](n2cnc3c(N)ncnc32)[C@H](O)[C@@H]1O,,inactive: -14.5%
O=C(CSc1ccccn1)N/N=C/c1ccccc1[N+](=O)[O-],"inconclusive [inhibitor, single point]",
CC(=O)c1cccc(NC(=O)c2ccc(N(Cc3ccc(C)cc3)S(C)(=O)=O)cc2)c1,"inconclusive [inhibitor, single point]",
O=S(=O)(c1ccc(Oc2ccc(F)c(Cl)c2)nc1)N1CCOCC1,,inactive: -19.8%
